According to the supplement of paper PMC8728848:
The other results are listed elsewhere or left out.

Key:
Test in all cases: glycan array binding signal (z-score within array); higher = stronger binding
Conditions in all cases: glycan notation: IUPAC condensed, linker removed
[1] = biological target: Gal(b1-4)GlcNAc(b1-6)[Gal(b1-3)]GalNAc
In short: (§1)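 The binding signal is a Z-score computed within each array and averaged over linkers. Arrays of the same protein sequence at different concentrations or buffers were also averaged together. Data originate from 3228 arrays in the Consortium for Functional Glycomics database, kept only where the protein sequence was available.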

[2] = biological target: Gal(b1-4)GlcNAc(b1-6)[Gal(b1-4)GlcNAc(b1-3)]GalNAc
In short: as §1

[3] = biological target: Gal(b1-4)GlcNAc6P
In short: as §1

[4] = biological target: Gal(b1-6)Gal
In short: as §1

[5] = biological target: Gal3S(b1-3)GalNAc
In short: as §1

[6] = biological target: Gal3S(b1-3)GlcNAc
In short: as §1

[7] = biological target: Gal3S(b1-3)[Fuc(a1-4)]GlcNAc
In short: as §1

[8] = biological target: Gal3S(b1-4)Glc
In short: as §1

[9] = biological target: Gal3S(b1-4)Glc6S
In short: as §1

[10] = biological target: Gal3S(b1-4)GlcNAc
In short: as §1

[11] = biological target: Gal3S(b1-4)[Fuc(a1-3)]Glc6S
In short: as §1

[12] = biological target: Gal3S(b1-4)[Fuc(a1-3)]GlcNAc
In short: as §1

[13] = biological target: Gal3S(b1-4)[Fuc(a1-3)]GlcNAc6S
In short: as §1

[14] = biological target: Gal3S4S(b1-4)GlcNAc
In short: as §1

[15] = biological target: Gal3S6S(b1-4)GlcNAc
In short: as §1

[16] = biological target: Gal3S6S(b1-4)GlcNAc6S
In short: as §1

[17] = biological target: Gal4S(b1-4)GlcNAc
In short: as §1

[18] = biological target: Gal4S6S(b1-4)GlcNAc
In short: as §1

[19] = biological target: Gal6P(b1-4)GlcNAc
In short: as §1

[20] = biological target: Gal6S(b1-3)GlcNAc
In short: as §1

[21] = biological target: Gal6S(b1-3)GlcNAc6S
In short: as §1

[22] = biological target: Gal6S(b1-4)Glc
In short: as §1

[23] = biological target: Gal6S(b1-4)Glc6S
In short: as §1

[24] = biological target: Gal6S(b1-4)GlcNAc
In short: as §1

[25] = biological target: Gal6S(b1-4)GlcNAc6S
In short: as §1

[26] = biological target: GalNAc(a1-3)Gal
In short: as §1

[27] = biological target: GalNAc(a1-3)GalNAc
In short: as §1

[28] = biological target: GalNAc(a1-3)GalNAc(b1-3)Gal(a1-4)Gal(b1-4)Glc
In short: as §1

[29] = biological target: GalNAc(a1-3)GalNAc(b1-3)Gal(a1-4)Gal(b1-4)GlcNAc
In short: as §1

[30] = biological target: GalNAc(b1-3)Gal
In short: as §1

[31] = biological target: GalNAc(b1-3)Gal(a1-4)Gal(b1-4)GlcNAc
In short: as §1

[32] = biological target: GalNAc(b1-3)Gal(a1-4)Gal(b1-4)GlcNAc(b1-3)Gal(b1-4)Glc
In short: as §1

[33] = biological target: GalNAc(b1-3)Gal(a1-6)Gal(b1-4)Glc
In short: as §1

[34] = biological target: GalNAc(b1-3)GalNAc
In short: as §1

[35] = biological target: GalNAc(b1-3)GlcNAc
In short: as §1

[36] = biological target: GalNAc(b1-4)Gal(b1-4)Glc
In short: as §1

[37] = biological target: GalNAc(b1-4)GlcNAc
In short: as §1

[38] = biological target: GalNAc(b1-4)GlcNAc(b1-2)Man
In short: as §1

B1: FliD (Clostridium difficile) (protein)
chain: MSSISPVRVTGLSGNFDMEGIIEASMIRDKEKVNKAKQDQQIVKWKQEIYRDIIKESKNLYDKYLNGDSPNSITNKKAYSATRITSSDESIIVAKGSAGAEKINYQFAVSQMAEPAKVTIKLNSSDPIVQQFPPNASGASSLNIGGVNIPISEQDTTSTIVSKINSLCADNDIRASYSEMTGELIISRKQTGSSSDIDLKVIGNDSLAGQIASDNGITFTTDASGTKSAVVYGKNLEADVTDDQGRVTHISKEQNSFKIDNIDYNVNSKGSAKLVSVTDTEEATKNMKAFVDDYNALMDKVYGLVTTKKSKDYPPLTDEQKDDMTTEEIEKWEKKAKEGILRNDDELRAFVEDIQSMFFGDADTIIALRKLGISEHENYNKKGQISFNADTFSKALIDDSDKVYKALAGYSSNYDDKGMFEKLKKIVFEYSGSSASKLTKKAGMENSSSASQNVYSKQIAEQERNISRLVEKMNDKEKRLYAKYSALESLLNKYSSQMNYFSQAQGN
- glycan array binding signal (z-score) [1]: -0.18
- glycan array binding signal (z-score) [2]: -0.169
- glycan array binding signal (z-score) [3]: -0.155
- glycan array binding signal (z-score) [4]: -0.166
- glycan array binding signal (z-score) [5]: 0.678
- glycan array binding signal (z-score) [6]: 0.039
- glycan array binding signal (z-score) [7]: -0.212
- glycan array binding signal (z-score) [8]: 3.41
- glycan array binding signal (z-score) [9]: 1.24
- glycan array binding signal (z-score) [10]: 0.108
- glycan array binding signal (z-score) [11]: -0.185
- glycan array binding signal (z-score) [12]: -0.139
- glycan array binding signal (z-score) [13]: 0.916
- glycan array binding signal (z-score) [14]: -0.16
- glycan array binding signal (z-score) [15]: -0.201
- glycan array binding signal (z-score) [16]: -0.169
- glycan array binding signal (z-score) [17]: -0.236
- glycan array binding signal (z-score) [18]: -0.204
- glycan array binding signal (z-score) [19]: -0.134
- glycan array binding signal (z-score) [20]: -0.222
- glycan array binding signal (z-score) [21]: -0.198
- glycan array binding signal (z-score) [22]: -0.112
- glycan array binding signal (z-score) [23]: -0.231
- glycan array binding signal (z-score) [24]: -0.232
- glycan array binding signal (z-score) [25]: -0.228
- glycan array binding signal (z-score) [26]: -0.165
- glycan array binding signal (z-score) [27]: 0.034
- glycan array binding signal (z-score) [28]: -0.09
- glycan array binding signal (z-score) [29]: -0.181
- glycan array binding signal (z-score) [30]: 0.623
- glycan array binding signal (z-score) [31]: -0.103
- glycan array binding signal (z-score) [32]: -0.169
- glycan array binding signal (z-score) [33]: -0.043
- glycan array binding signal (z-score) [34]: -0.226
- glycan array binding signal (z-score) [35]: -0.175
- glycan array binding signal (z-score) [36]: -0.057
- glycan array binding signal (z-score) [37]: -0.162
- glycan array binding signal (z-score) [38]: -0.234
